Here are results for 58 sequences from the supplement of paper PMC11417369.

This is one part of the list.

In the assay the test system is PfHDP1 homeodomain (GST-tagged). The assay can be described thus: gcPBM binding intensity (ln(normalized median fluorescence intensity)); higher = stronger DNA binding. The gist of the method: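 Alexa488 anti-GST antibody, scanned at 488 nm, detected GST-tagged P. falciparum DNA-binding domains that had been expressed in E. coli and incubated for 1 h on an Agilent 4 × 180k array. The array carried primer-extended double-stranded 36-bp intergenic genomic probes and negative controls. Binding intensity is the highest Masliner-normalised natural-log median intensity across replicate spots of either orientation of each probe.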
With “TAAATGGGTGTTAATGCACACGATATGTCTATATAT [CACACA_site5321]”, the “gcPBM binding intensity (ln)” value came to 9.86.

With ATACTATATATATAAGTGCATGTTCATTATACCTAA, the “gcPBM binding intensity (ln)” value is 7.23.

Consider “ATAACTAAATGATATTGTACAAAATAATTATATATT [XGTACX_site1331]”, for which the “gcPBM binding intensity (ln)” value turned out to be 6.38.

Turning to ATATATATTATGTGTGTGCACTTTTGTTATTATTAT, the “gcPBM binding intensity (ln)” value turned out to be 9.03.

With “AAAAATCAATTAGAAGAACACACGTAAATTTTTTTT [CACACA_site2396]”, the “gcPBM binding intensity (ln)” value was found to be 6.47.

On to CATTATATGATTTATGTGCACATTCATTTATTTTAA, for which the “gcPBM binding intensity (ln)” value was 10.8.

In the case of “TATTAATAAAACCGTTGTACTACATACATAAATATT [XGTACX_site5578]”, the “gcPBM binding intensity (ln)” value was 6.5.

Turning to “AAAAAAAAAAAAAAATGTACAAAAATTACTATAAAA [XGTACX_site7683]”, the “gcPBM binding intensity (ln)” value stood at 6.39.

Turning to “TTTTTTTTTGTTTACACACACAAAATATTATATGTA [CACACA_site2470]”, the “gcPBM binding intensity (ln)” value worked out at 6.61.

With “TTATAACACATTACATGTACAAATATAAATATATTC [XGTACX_site6503]”, the “gcPBM binding intensity (ln)” value stood at 6.46.

Turning to “AAAAATATATATAACACACACATAATATATATATAT [CACACA_site2537]”, the “gcPBM binding intensity (ln)” value came to 8.94.

For the sequence “TATTATTACGTAATATGTACATATATTTATACCACT [XGTACX_site5918]”, the “gcPBM binding intensity (ln)” value came to 6.95.

As for “AGGAAAAACTTGAATGCATGCGCACATTCTAGTTTG [TGCATGCA_site776]”, the “gcPBM binding intensity (ln)” value was 6.68.

As for “ACAAATCTAAGATAGTGTACATTTATATATATATAT [XGTACX_site8740]”, the “gcPBM binding intensity (ln)” value amounted to 8.96.

Consider “TTTATTTATCTGTATACACACTTTAATGAAAAGTTG [CACACA_site5400]”, for which the “gcPBM binding intensity (ln)” value was found to be 7.03.

Regarding “TTTATATACACACAGAAGAACAGAAATATTATATAT [TGCATGCA_negctrl_site483]”, the “gcPBM binding intensity (ln)” value came to 6.69.

For the sequence “AATATAAATAAAAACACACACACACCCATATATATA [CACACA_site2267]”, the “gcPBM binding intensity (ln)” value is 7.13.

As for TATATATATATATAAGTGCATATAAAAATCGTTCGT, the “gcPBM binding intensity (ln)” value came out at 9.45.

As for “ATTTTTTTTTTTTTTTTTTTTTTTTGGAGAAAGAGA [CACACA_negctrl_site1119]”, the “gcPBM binding intensity (ln)” value turned out to be 5.98.

For the sequence “ATATATATATAATAAACACACACATATACATATATG [CACACA_site9145]”, the “gcPBM binding intensity (ln)” value stood at 8.39.

For the sequence “ATAAATACTAGGCACACACACATATATATATATATA [CACACA_site2080]”, the “gcPBM binding intensity (ln)” value amounted to 9.43.

With “ATATATATATATATATGTACATATATGTATACCTTA [XGTACX_site6791]”, the “gcPBM binding intensity (ln)” value is 9.38.

With “CAATAGTTCTTATGGGTGCAAACCACATATATATAA [GTGCAC_site9606]”, the “gcPBM binding intensity (ln)” value was determined as 8.76.

On to “AAAATTATATATTATTGTACATAAAATTTTGACATA [XGTACX_site4886]”, for which the “gcPBM binding intensity (ln)” value stood at 6.45.

For the sequence “ATAACGATATATGTGCGTACTTATAGAATAAGCAAA [XGTACX_site6743]”, the “gcPBM binding intensity (ln)” value came out at 6.94.

ATATATCATATTATAGTGCATTTATAATAATATTAT: the “gcPBM binding intensity (ln)” value was 8.51.

In the case of “TATTATCTGTAGTGTACACATATTATATAGTACTTT [CACACA_site4582]”, the “gcPBM binding intensity (ln)” value was found to be 7.

As for “TATTTTTTTTTTATATGTACATAATTTCAAATAAAT [XGTACX_site7747]”, the “gcPBM binding intensity (ln)” value is 6.55.

For “AAGGATATAACATACACACACACACCGATATATATA [CACACA_site6136]”, the “gcPBM binding intensity (ln)” value is 7.04.

In the case of “CTTTAACCTTTTTATTGTACTTTTAATATTTTAAAA [XGTACX_site4457]”, the “gcPBM binding intensity (ln)” value turned out to be 6.81.

As to “TCTTTAATGAACAAATGTACAAGAACAATACCCGCA [XGTACX_site2047]”, the “gcPBM binding intensity (ln)” value is 6.83.

Consider “AATATATGGTATAATTGTACAAAAAAAAAAAAAAAA [XGTACX_site1476]”, for which the “gcPBM binding intensity (ln)” value was determined as 6.38.

For the sequence “GTGAAATGGAAAAAAAGTACAGATTACATAAGTATT [XGTACX_site6355]”, the “gcPBM binding intensity (ln)” value worked out at 6.33.

As to “TATTAATTTATATCAACACACAAAATCAATATACTT [CACACA_site1757]”, the “gcPBM binding intensity (ln)” value turned out to be 6.28.

Take “ATATAGATCAGACACACACACATGTTTTAAAACTAT [CACACA_site6186]”: the “gcPBM binding intensity (ln)” value came to 7.03.

With “AAGGAATAATATAAAACACACACATAAATATAAATA [CACACA_site9115]”, the “gcPBM binding intensity (ln)” value was 7.01.

As for “CGAAATATTATGTACGCACACACATTTTTAATATAT [CACACA_site3852]”, the “gcPBM binding intensity (ln)” value turned out to be 6.96.

On to “TTCTATATTTTAGCTGATAATATTATGAGCTTCACT [XGTACX_negctrl_site427]”, for which the “gcPBM binding intensity (ln)” value was determined as 6.44.

In the case of “AACATAAATATATATAGTACATATATATATATTCAA [XGTACX_site7287]”, the “gcPBM binding intensity (ln)” value was 6.31.

Take “AGCTCATGCAGGTGTACACAAAAAGAAAAAAAATAA [CACACA_site4828]”: the “gcPBM binding intensity (ln)” value stood at 6.74.

On to “AAAACAAATATATTAACACACAAACATATAAACAAA [CACACA_site6052]”, for which the “gcPBM binding intensity (ln)” value worked out at 7.07.

Turning to “ATAAATAATGTTGACACACACAATAATCTTATTATG [CACACA_site3593]”, the “gcPBM binding intensity (ln)” value is 6.51.

Consider “CCCCATATAATGAACACACACACTCCTCATAATTAA [CACACA_site628]”, for which the “gcPBM binding intensity (ln)” value is 6.93.

As to “ATGTCCTCAATGTTTACACACTCTTTTATATAAGTT [CACACA_site1460]”, the “gcPBM binding intensity (ln)” value came to 7.13.

For the sequence “TATTTTAATTATAAATTTAAAAAAAAAAAGAAAAAA [CACACA_negctrl_site1674]”, the “gcPBM binding intensity (ln)” value is 6.03.

As to “TGCTTATATATACGTGCACACATATATATAAGATAT [CACACA_site8516]”, the “gcPBM binding intensity (ln)” value turned out to be 9.62.

“CTGGAGGATGAAAAAAGTACAAAAGGAGGAAATGTA [XGTACX_site8846]”: the “gcPBM binding intensity (ln)” value came to 6.55.

Turning to “TCTTATTTAAAAATAGCACACATTATGTATATATAT [CACACA_site2822]”, the “gcPBM binding intensity (ln)” value came to 7.3.

Consider “AGCTCGGAAAAATTAGCATGCAAAAAAAAAAAAAAA [TGCATGCA_site658]”, for which the “gcPBM binding intensity (ln)” value turned out to be 6.18.

As to “ATTATTATTAATAGTACACACTATGGCATTTCAATA [CACACA_site5388]”, the “gcPBM binding intensity (ln)” value came to 6.58.

“TATATAACTGTCTTCACACACACATATAAATAAATA [CACACA_site7317]”: the “gcPBM binding intensity (ln)” value came out at 6.74.

For the sequence “TATTTCACAACTTGTCGTACATTAATTGTATTATTT [XGTACX_site997]”, the “gcPBM binding intensity (ln)” value was 6.75.

As to “ATCTTTCATCTACCAAGTACAAATTACTTTTTTTTT [XGTACX_site7001]”, the “gcPBM binding intensity (ln)” value is 6.79.

As to “TTAGGTGTATATAATTGTACATTTTGGAAATTATAC [XGTACX_site5492]”, the “gcPBM binding intensity (ln)” value was determined as 6.21.

For the sequence “TTCTTTTCTTCTACATGTACAAATATTATATATATA [XGTACX_site2996]”, the “gcPBM binding intensity (ln)” value was found to be 7.07.

With “TTTTGGAATTTTAGCTGTACTTTTCCTATTTTGTAT [XGTACX_site7679]”, the “gcPBM binding intensity (ln)” value is 6.34.

Turning to “TGAAACCATAAAGAATGTACACAGCGGTATAAGTTA [XGTACX_site674]”, the “gcPBM binding intensity (ln)” value was 6.8.

Regarding “TTTTAAATAATACATACATGCATATATACACATATA [TGCATGCA_site8]”, the “gcPBM binding intensity (ln)” value is 6.58.
